Results from paper doi:10.1101/810531 (bioRxiv, 2019).

Target: SNARE domain of syntaxin 1a (aa 180-262) (Rattus norvegicus, UniProt P32851 part only)
Test: native gel or EMSA

UniProt P32851, sequence (P32851 180-262): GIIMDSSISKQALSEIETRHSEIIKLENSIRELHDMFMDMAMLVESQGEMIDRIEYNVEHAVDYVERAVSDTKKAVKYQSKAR

B1: first helix of SNAP-25 ([…]) (domain or fragment)
chain: not shown
B1: binds.
